Results reported in the supplement of paper PMC11417369.
Some of the results follow.

Each sequence was assayed on PfAP2-HC AP2 domain (GST-tagged) (assay: gcPBM binding intensity (ln(normalized median fluorescence intensity)); higher = stronger DNA binding).
Procedure, shortened: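 Plasmodium falciparum DNA-binding domains carrying a GST tag were expressed in E. coli and applied for 1 h, at about 25 μg on average, to an Agilent 4 × 180k array. The array held primer-extended double-stranded 36-bp intergenic genomic probes together with negative controls, and binding took place in 1× PBS with 1% milk, 0.2 mg/ml BSA, 0.5% salmon testes DNA and 0.03% Triton X-100. An Alexa488 anti-GST antibody detected bound protein, and the array was scanned at 488 nm. Binding intensity is taken as the highest Masliner-normalised natural-log median intensity across replicate spots of either probe orientation.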

Compared with “TTTTTTTTAATTGTGATACGTATATTATTTAATGAT [CACACA_negctrl_site38]”, “ACCAGTTCTTAATACAAATATGTACATATATATATA [GTGCAC_negctrl_site56]” is higher in “gcPBM binding intensity (ln)” value: 9.59 for the first, 9.65 for the second.

Going from “AGCAGGATTAAAAAAAGTACAAGAATTAATATTTAA [XGTACX_site3413]” to “ATTTTTTATTGTTATAAAAAAAAAATTAAACAATTA [CACACA_negctrl_site1077]”, the “gcPBM binding intensity (ln)” value falls from 9.57 to 9.21.

Going from “AATTATTATCCCCTCACACACAAAAATAAAAAGAAT [CACACA_site2885]” to “TATATCTATAATATTACACACATATATTTATATTTT [CACACA_site7595]”, the “gcPBM binding intensity (ln)” value falls from 10.2 to 9.86.

First: CAAAAAAAGGAAAAGATACACACCGTAAATTAAAAT [CACACA_site3612]
Second: TATTCGTCTTTTTTCTCACACACCCTTTTTATTAAA [CACACA_site2508]
The “gcPBM binding intensity (ln)” value of the first is lower: 9.94 for the first, 9.97 for the second.

First: TATTTCATCTTATTTTAGGAAAAACTAATATATAAG [CACACA_negctrl_site1823]
Second: AAATTTAGGAACATTATATATATATATATATATATA [CACACA_negctrl_site862]
The “gcPBM binding intensity (ln)” value of the first is lower: 9.2 for the first, 9.41 for the second.

First: GAACATTTGAAATATGCACACATGTATAAACCTACA [CACACA_site2654]
Second: TAAAAATAAAGAAAATGTACATAAATAATAATACAT [XGTACX_site2278]
The “gcPBM binding intensity (ln)” value of the first is higher: 9.85 for the first, 9.81 for the second.

First: CCCACATAAAAAAATAAACACACATATGTATATATA [CACACA_site9040]
Second: AAATGGGCTTATTTATGTACTTAAATATATCTACCC [XGTACX_site3823]
The “gcPBM binding intensity (ln)” value of the first is higher: 9.98 for the first, 9.61 for the second.

First: TAATCAATTCAATATTGTACGATATTTACCTTTAAA [XGTACX_site4678]
Second: TACATATATATATACACACATACATATATATACGCA [CACACA_site792]
The “gcPBM binding intensity (ln)” value of the first is lower: 9.67 for the first, 9.85 for the second.

Compared with “AACCTCGTGTAATATGCATGTTCCCTTCAAAGTTTT [TGCATGCA_site459]”, “ATTATACATTTTAGATGTACATATTTTAAATTTAAT [XGTACX_site5174]” is higher in “gcPBM binding intensity (ln)” value: 9.61 for the first, 9.62 for the second.

Compared with “ATATTTTGTATAATCACACACACTATTCTTAAATAG [CACACA_site7270]”, “AGAAATTAATCGAAGTGTACATATAAACATACATAT [XGTACX_site5518]” is lower in “gcPBM binding intensity (ln)” value: 9.98 for the first, 9.79 for the second.

First: AACAAACAAACAAATATACACACTTTTGTATAAAGT [CACACA_site3509]
Second: TACATTGTATACATATGTACACATATATATATATAT [XGTACX_site6174]
The “gcPBM binding intensity (ln)” value of the first is higher: 9.88 for the first, 9.87 for the second.

First: TATTTATGTTATAATTGTACAATAAACAAATTTTTT [XGTACX_site5306]
Second: AAAAAAATCTATATTACACACATATATACCTATATA [CACACA_site7464]
The “gcPBM binding intensity (ln)” value of the first is lower: 9.42 for the first, 9.8 for the second.

Going from “TATATATATATAATGTGTACATACTAAATAGAGGAC [XGTACX_site4153]” to “GAAATGTATAAATCCATACACACATAAATTTTAATA [CACACA_site2364]”, the “gcPBM binding intensity (ln)” value falls from 10 to 9.96.

First: TAAATATAAAAATGCACACACACAAAAAAAAAAAAA [CACACA_site895]
Second: ATAGGTGAATACTAATATAAATTCAAGAGGGAAAAG [CACACA_negctrl_site720]
The “gcPBM binding intensity (ln)” value of the first is higher: 11.4 for the first, 9.73 for the second.

First: TTTACATTAAATCACGCACACAAAAAAAAAAAAAAA [CACACA_site2418]
Second: TATTTATTTGTGGGGTGTACGAAATTTTTTTTTTTT [XGTACX_site5091]
The “gcPBM binding intensity (ln)” value of the first is lower: 9.94 for the first, 9.97 for the second.

First: ATCTATGGAGCTTATACACACTTTTATATTTTAACA [CACACA_site5994]
Second: TTTGAATTTTTATATACACACATTATTATATTATAT [CACACA_site1593]
The “gcPBM binding intensity (ln)” value of the first is lower: 9.82 for the first, 9.91 for the second.

Going from “CCTTTCTATTGAAAATGTACATATATATTATTATAT [XGTACX_site5527]” to “AATAATTGTAGACATGCACACACAAATATTATATAT [CACACA_site8181]”, the “gcPBM binding intensity (ln)” value rises from 9.73 to 10.4.

Compared with “AATAATTGTTATAGTTGTACAATACATATATTACAA [XGTACX_site30]”, “TGTATATATAAAAATATACACACTGTATTATTGTAA [CACACA_site3757]” is lower in “gcPBM binding intensity (ln)” value: 9.73 for the first, 9.67 for the second.

First: CATATTTTGAACTTCACACATATATATATATATATA [CACACA_site4228]
Second: GGTAGATTATTATTAACGAAAAATGTTTTTAACATA [GTGCAC_negctrl_site216]
The “gcPBM binding intensity (ln)” value of the first is higher: 9.68 for the first, 9.35 for the second.

Compared with “AAATAAAAAATGGAAATCTTAACAAGAATCATTAAC [CACACA_negctrl_site1626]”, “TATATACAGAATATATGTACATATTCATTTTATATT [XGTACX_site5139]” is lower in “gcPBM binding intensity (ln)” value: 9.77 for the first, 9.66 for the second.

Compared with “AAAAAATAAATAAATAGTACTTTAAAAGAAAAAAAA [XGTACX_site5051]”, AAAGAAAACCAAGTGGTGCATTTTCGTTACTTCATC is lower in “gcPBM binding intensity (ln)” value: 9.72 for the first, 9.55 for the second.

Compared with “CAATGTTACTATAATACACACAATATGTATTTGTCT [CACACA_site6668]”, “TTGTTTAACTTGTTAAATATAATGTATCTGTGGATA [GTGCAC_negctrl_site108]” is lower in “gcPBM binding intensity (ln)” value: 9.93 for the first, 9.39 for the second.

First: AATATATATACTTTTTTTTTTTTTTTTTTTTTTTTT [CACACA_negctrl_site520]
Second: ACAAATTGTTAAAGGTGTACAATACATATATAAGAA [XGTACX_site4906]
The “gcPBM binding intensity (ln)” value of the first is lower: 9.38 for the first, 9.89 for the second.

Going from “TATGTTTACATATACGTGCACATGAATGTATACATT [GTGCAC_site9894]” to “TTTAGCACAAACAAAAAAAAAATAGAAAAAAATATA [CACACA_negctrl_site1772]”, the “gcPBM binding intensity (ln)” value falls from 9.73 to 9.46.

Compared with “TATATATATATATCCACACACATACATATATTAATA [CACACA_site69]”, “TTGGTAATTTTAAAATGTACTTATTATATATATATA [XGTACX_site5642]” is lower in “gcPBM binding intensity (ln)” value: 10.3 for the first, 9.52 for the second.

Going from “TATACACTTGTAATAACACACATTATTTTTTTTTTT [CACACA_site1324]” to “ATAAAAAATTTAAGTATTTTTTACAAACCTATAAAT [GTGCAC_negctrl_site51]”, the “gcPBM binding intensity (ln)” value falls from 9.86 to 9.38.

Going from “AATTAACCGAAACACACACACATATATATATATATA [CACACA_site3963]” to “TTTTGTTGTTGTTGTTGTACATAAATAATAAAATAT [XGTACX_site8681]”, the “gcPBM binding intensity (ln)” value falls from 10.5 to 9.63.

First: ATATATTTTTTTTAGCGTACATGCAAAAAAAAAAAA [XGTACX_site4590]
Second: TCATAAATTAAACACACACACACATCTGGATACCCC [CACACA_site9096]
The “gcPBM binding intensity (ln)” value of the first is lower: 9.36 for the first, 10.9 for the second.

First: TATACACACAGACATGCATGCACATATATATATACA [TGCATGCA_site30]
Second: AAATTAAAAGAAAATACACACCTGTGGGTGCTTATA [CACACA_site5143]
The “gcPBM binding intensity (ln)” value of the first is higher: 10 for the first, 9.61 for the second.

First: ATTTTTTTTTGTTTAATGTTATGTGGTCATTAAATT [CACACA_negctrl_site1177]
Second: TATTTATTCACTTATTGTACTTATATATATAATAAA [XGTACX_site6147]
The “gcPBM binding intensity (ln)” value of the first is higher: 9.74 for the first, 9.69 for the second.

Compared with “TTTTTTTTATTTTAATGTACATTTTTTATTTGTTAT [XGTACX_site7189]”, “TGATACTTTTTTTGTAGTACTCCTAAAATTATAAAA [XGTACX_site4340]” is lower in “gcPBM binding intensity (ln)” value: 9.89 for the first, 9.28 for the second.

Going from TAATAAAATATGTACGTGCACATAATTATACTAAAA to “ATATATATATTATTTCGTACATAATTATTTGCCTTA [XGTACX_site350]”, the “gcPBM binding intensity (ln)” value falls from 9.79 to 9.67.

First: AAAAAAAAAAAAAATTGTACAAAAAAAATAAATAAA [XGTACX_site6816]
Second: AAAAAAAAAAAAGAAACACACATATTTATATTTATA [CACACA_site6213]
The “gcPBM binding intensity (ln)” value of the first is higher: 9.76 for the first, 9.74 for the second.

Going from “TTATTTTAATAACCTACACACATTTTGTATATTTTA [CACACA_site4000]” to “AAATGATGGAAAAAATAAATTTTTGTACAAAAATTA [CACACA_negctrl_site814]”, the “gcPBM binding intensity (ln)” value falls from 9.89 to 9.49.

First: TTATAAATATTCTTGGGTACTTAAGATGATATGTAA [XGTACX_site5496]
Second: AAAAAAAAAAAGAAAGCACACAATACATATGTATAA [CACACA_site1137]
The “gcPBM binding intensity (ln)” value of the first is lower: 9.41 for the first, 9.86 for the second.

First: ATATATATCAGACACACACACATGTTTTAAAACTAT [CACACA_site77]
Second: TAAATTTTTAAATACACACATACACCCATACAGACA [CACACA_site548]
The “gcPBM binding intensity (ln)” value of the first is lower: 10.3 for the first, 10.4 for the second.

Going from “TTTTTTTTGTGGTGTCGTACATATGTTTGTTTTAAG [XGTACX_site1759]” to “ATTATGCTACAAGGAGAACACACAATTGCCACTTTT [CACACA_site8673]”, the “gcPBM binding intensity (ln)” value falls from 9.98 to 9.9.

Compared with “ACATATATATATATATATATATATATATAATATTTA [CACACA_negctrl_site633]”, CCACGAGAATATATAGTGCATAATAATTTTTTTTTG is lower in “gcPBM binding intensity (ln)” value: 9.52 for the first, 9.48 for the second.

Compared with “GGTGATAATAAGCATACACACACACCCAAAAAAAAA [CACACA_site8137]”, “ACACATACACATTAGGTGCATATATTTCAATATTAC [GTGCAC_site9423]” is lower in “gcPBM binding intensity (ln)” value: 10.2 for the first, 9.84 for the second.

Going from “TTTAAAAAGATATATACACACATATAAATAAATATA [CACACA_site6436]” to “CCACGTATAATATGTACACACACATATATACAAAAA [CACACA_site8208]”, the “gcPBM binding intensity (ln)” value rises from 9.81 to 10.2.

Compared with “AGCCTCGGGGTCATATATATATATATATATATATAT [CACACA_negctrl_site512]”, “ATTATATTTTTAAGTACACACATATATATATATATA [CACACA_site5925]” is higher in “gcPBM binding intensity (ln)” value: 9.72 for the first, 9.76 for the second.

Compared with “AATTATTTACCCTATACACACAAAACAGACTAAAAA [CACACA_site6688]”, “ATAAAAATCATGTTGGTGCGAAATTTTATTATCAGA [GTGCAC_site9735]” is lower in “gcPBM binding intensity (ln)” value: 10.2 for the first, 9.62 for the second.

Going from “ATATTAATTCGTTTTGTACACACATAATGAATAATT [CACACA_site8701]” to “TTATGTATAAACACACGTACACACACTAAGTATATC [XGTACX_site3254]”, the “gcPBM binding intensity (ln)” value rises from 10 to 10.1.

First: AAGGTATGATTAATCACACACATAAATATATATACA [CACACA_site2658]
Second: TATATATATATATATATAATACGAATTTGTAGTACA [TGCATGCA_negctrl_site224]
The “gcPBM binding intensity (ln)” value of the first is higher: 10.1 for the first, 9.62 for the second.
